These are yes or no findings as the source states them, for the method shown. Binding seen in cells or lysates may run through a third protein. Some entries that bind do so weakly or less than the wild type. Tags and fused reporters may be left off the sequences shown. Values belong to the molecule of their own block, whether it stands above or below them.
Key:
[1] = molecular target: T1, GADD45γ-Flag (UniProt O95257); assay: co-IP; DU145 cells transfected; protein extracts immunoprecipitated with anti-FLAG mAb; Western blot
T1 sequence: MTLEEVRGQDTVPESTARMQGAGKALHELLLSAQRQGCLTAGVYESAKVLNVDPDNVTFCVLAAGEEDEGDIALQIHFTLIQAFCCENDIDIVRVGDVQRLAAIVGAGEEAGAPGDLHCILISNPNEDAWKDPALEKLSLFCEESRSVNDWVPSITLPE

Amino acid sequences for entries named in this document (tags omitted). Residues count along the entry.
UniProt P21127, residues 357-795: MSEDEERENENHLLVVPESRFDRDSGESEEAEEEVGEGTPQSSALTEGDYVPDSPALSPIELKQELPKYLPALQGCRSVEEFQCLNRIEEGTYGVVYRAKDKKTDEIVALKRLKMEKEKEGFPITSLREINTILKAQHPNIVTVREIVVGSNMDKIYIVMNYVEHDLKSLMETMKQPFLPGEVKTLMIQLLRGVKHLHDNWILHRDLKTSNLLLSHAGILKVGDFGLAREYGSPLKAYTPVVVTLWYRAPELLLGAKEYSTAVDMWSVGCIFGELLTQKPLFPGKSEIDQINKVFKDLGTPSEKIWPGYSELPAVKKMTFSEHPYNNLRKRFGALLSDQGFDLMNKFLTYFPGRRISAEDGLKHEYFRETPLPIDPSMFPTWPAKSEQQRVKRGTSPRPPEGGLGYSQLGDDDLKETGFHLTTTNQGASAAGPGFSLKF

[2] = molecular target: T2, SPDEF-Flag (UniProt O95238); assay: as above
T2 sequence: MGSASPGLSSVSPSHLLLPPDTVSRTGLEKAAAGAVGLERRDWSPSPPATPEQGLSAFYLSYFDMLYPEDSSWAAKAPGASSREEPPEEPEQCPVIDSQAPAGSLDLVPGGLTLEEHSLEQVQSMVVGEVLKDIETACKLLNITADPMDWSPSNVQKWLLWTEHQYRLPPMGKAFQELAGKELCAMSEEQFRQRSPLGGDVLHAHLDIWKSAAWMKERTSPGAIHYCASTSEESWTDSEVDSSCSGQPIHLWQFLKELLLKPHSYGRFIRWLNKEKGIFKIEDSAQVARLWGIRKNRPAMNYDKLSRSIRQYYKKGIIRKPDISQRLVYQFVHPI

[3] = molecular target: T3, SPDEF-GST (UniProt O95238); assay: pull-down; GST fusion protein from BL21 lysate on glutathione-Sepharose beads, washed, incubated with 5 μl of in vitro translated protein in protein binding buffer for 16 hours at 4°C; Western blot; only the target purified
T3 sequence: T2 sequence

[4] = molecular target: T1, GADD45γ-Flag; assay: co-IP; in vitro translated proteins mixed in the presence of anti-Flag agarose or anti-myc agarose beads; Western blot
[5] = molecular target: T1, GADD45γ-Flag; assay: co-IP; HEK 293T cells transfected; protein extracts immunoprecipitated with anti-FLAG mAb; Western blot with anti-HA
[6] = molecular target: T4, GADD45α-Flag (UniProt P24522); assay: as above
T4 sequence: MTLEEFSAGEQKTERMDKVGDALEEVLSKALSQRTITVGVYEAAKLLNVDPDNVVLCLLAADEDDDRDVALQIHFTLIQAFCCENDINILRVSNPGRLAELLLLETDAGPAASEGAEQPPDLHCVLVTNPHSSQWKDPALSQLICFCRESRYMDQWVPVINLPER

[7] = molecular target: T5, GADD45β-Flag (UniProt O75293); assay: as above
T5 sequence: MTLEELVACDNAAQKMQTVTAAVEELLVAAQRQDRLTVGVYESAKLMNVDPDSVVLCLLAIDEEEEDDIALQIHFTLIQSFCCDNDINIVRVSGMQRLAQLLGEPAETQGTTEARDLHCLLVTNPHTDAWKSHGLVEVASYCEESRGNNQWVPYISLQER

[8] = molecular target: T6, SPDEF-myc (UniProt O95238); assay: co-IP; in vitro translated proteins mixed in the presence of anti-Flag agarose or anti-myc agarose beads; Western blot
T6 sequence: T2 sequence

binding [1]: binds
binding [2]: binds
binding [3]: binds
binding [4]: binds
binding [5]: binds
binding [6]: binds
binding [7]: binds
Molecule: CDK11p58-HA (from UniProt P21127-12 1-439)

binding [8]: no binding
B1: GADD45α-Flag (protein, UniProt P24522 1-165)
chain: T4 sequence

Reference: paper PMC4924684
